Reference: PubChem BioAssay AID1963576 (National Center for Advancing Translational Sciences (NCATS), 2024)
Out of some 46,000 compounds screened, about 60 (0.1%) were called active. Roughly 3% stayed inconclusive and do not appear here. The call rests on the fitted dose curve; in most records, active means well fitted inhibition curve with a large enough effect; inconclusive means small, poorly fitted or top-dose-only effect; inactive means no such curve, though single readings can be large or run the other way. This is one part of the list.

test: Primary qHTS assay for Inhibitors of ovarian cancer metastasis using an organotypic tumor microenvironment (TME) model.; further: nearly all actives have a fitted effect of over 65% in size;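 on activity change, negative = inhibition: plate controls were DMSO wells for no effect and tomatine positive control wells for full effect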; conditions: SKOV3ip1-GFP adhesion/invasion on 3D omental model, fluorescence; series mostly up to 45.8 µM; activity change, negative = inhibition: at the top concentration
Outline: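 qHTS, 4-pt dose (0.36-46 umol/L); SKOV3ip1-GFP, 1,200 cells/well, no FBS; primary omental fibroblast/mesothelial co-culture 48 h pre-grown; 2 h RT + 16 h 37 C; PBS wash, 4% PFA; GFP count 488/509 nm.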

Activity change, negative = inhibition, inactive:
Cc1ccc(CCNC(=O)CN2CCN(Cc3ccc(Cl)cc3)C2=O)cc1 -0.132%, COc1ccc(S(=O)(=O)NCCc2cn3ccsc3n2)cc1 1.91%, Cc1ccc(S(=O)(=O)Nc2ccc3c(c2)c(C(=O)OC(C)C)c(C)n3S(=O)(=O)c2ccc(C)cc2)cc1 6.29%, CC(=O)c1ccc(NC(=O)c2ccc(CN3C(=O)CCn4nc(C)cc43)cc2)cc1 -3.56%, Cn1nnnc1SCCCNCc1ccccc1OCc1ccccc1F 0.419%, COC(=O)c1ccccc1NC(=O)c1cc(=O)c2ccc(C)c(C)c2o1 -4.72%, COc1ccc(CCNC(=O)Cn2ccc3cc(S(=O)(=O)N4CCCCC4)ccc32)cc1OC 2.14%, CCN(CC)CCNC(=O)Cn1ncc2c3ccccc3n(Cc3ccccc3C)c2c1=O -8.55%, COc1ccc(C(=O)c2cn(Cc3cccc(C)c3)c3cc4c(cc3c2=O)OCCO4)cc1OC 1.95%, CCc1ccc(NC(=O)CN2C(=O)CCSc3ccc(S(=O)(=O)N4CCCC4)cc32)cc1 1.57%, Cc1cccc(-c2[nH]c(C(C)(C)C)nc2-c2ccc3c(c2)OCO3)n1 9.73%, CCOC(=O)c1ccc(NC(=O)C2CCN(S(=O)(=O)Cc3ccccc3)CC2)cc1 1.41%, Cc1cc(Cl)ccc1NC(=O)CS(=O)(=O)c1cccc2nsnc12 -7.53%, CC(=O)c1ccc(NC(=O)C2CCCN(S(=O)(=O)c3ccc(Br)s3)C2)cc1 (configuration not stated) 0.323%, Cc1cccn2c(=O)c3cc(C(=O)NC(C)(C)C)n(C)c3nc12 -7.21%, CCOC(=O)C1CCN(c2nc3c(S(=O)(=O)c4ccc(CC)cc4)nnn3c3ccc(Cl)cc23)CC1 1.35%, COC(=O)c1sc2cccc(F)c2c1S(=O)(=O)NC(C)c1ccccc1 (configuration not stated) -2.63%, CCc1ccc(NCc2cc3ccc(OC)cc3n(CC(=O)Nc3ccccc3OC)c2=O)cc1 -25.5%, Cc1cc(C)cc(NC(=O)CSc2oc(-c3cccs3)nc2S(=O)(=O)c2ccc(Br)cc2)c1 -11.2%, Cc1ccn2c(Nc3ccc4c(c3)OCO4)c(-c3ccc(C)o3)nc2c1 -2.66%, Cc1ccc(C(=O)NCCSc2c[nH]c3ccccc23)cc1C -4.02%, CCCN(CCC)C(=O)Cn1c(=O)n(-c2ccc(CC)cc2)c(=O)c2c3c(sc21)CCC3 -6.77%, COc1ccc(-c2c(C)c3ccc(O)c(CN4CCCCC4C)c3oc2=O)cc1OC (configuration not stated) -7.11%, COc1ccc(NC(=O)C2(S(=O)(=O)c3ccc(C)cc3)CC2)c(OC)c1 0.641%, CCN(C(=O)c1c(O)c2c(Cl)cccc2n(C)c1=O)c1ccccc1 11.3%, O=C(CSc1nccn1Cc1ccc(F)cc1)NC1CCCC1 13.6%, CCCOC(=O)c1ccc(NC(=O)C2CC(=O)N(c3ccc(C)cc3)C2)cc1 (configuration not stated) 6.55%, Cc1ccc(CN(C(=O)COc2cccc(Cl)c2)c2ccccn2)o1 1.27%, CCOc1ccc(NC(c2ccc(Cl)cc2)c2nnc(-c3cccc(F)c3)o2)cc1 (configuration not stated) 3.67%, Cc1ccc(C)c(-c2ccc(=O)n(C(C)C(=O)Nc3ccccc3C(F)(F)F)n2)c1 (configuration not stated) -13.1%, CCc1ccc(-n2nc(C)c3c(C(=O)Nc4ccc(Cl)cc4)cc(C)nc32)cc1 -2.92%, CCC(=O)N1c2ccccc2CC1C(=O)NCCc1ccccc1OC (configuration not stated) 1.64%, CCCOc1ccccc1C(=O)N1CCCCC1CCN1CCCCC1 (configuration not stated) 3.09%, COc1ccc(C(=O)Nc2cc(-c3nc4ncccc4o3)ccc2C)cc1Br -1.18%, COc1ccc(OC)c(-n2nnc(-c3nc(-c4ccc5c(c4)OCO5)no3)c2C)c1 -6.98%, O=C(NC1CC(=O)N(c2cccc(F)c2)C1)c1ccc(S(=O)(=O)N2CCCCC2)cc1 (configuration not stated) -2.93%, COc1ccc(OCc2nc(-c3ccc(OC)c(OC)c3)no2)cc1 -13.1%, CC(=O)Nc1ccc(NC(=O)c2ccc3c(c2)CCN3S(=O)(=O)c2ccc(Cl)cc2)cc1 -6.37%, CCc1ccc(NS(=O)(=O)c2cc(Br)cc3c2N(C(C)=O)CC3)cc1 -10.7%, COc1ccc(CCNc2oc(/C=C/c3ccc(OC)c(OC)c3)nc2C#N)cc1 -27.3%, CCCc1nc2nc(C)c(NS(=O)(=O)c3ccc(C)c(C)c3)c(=O)n2[nH]1 -9.19%, COc1cccc(NC(=O)CSc2nnc3[nH]c(=O)cc(-c4ccccc4)n23)c1 1.63%, CCOC(=O)C1CCCN(C(=O)c2ccc(C)c(NC(=O)c3nsc4ccccc34)c2)C1 (configuration not stated) 3.02%, CC(=O)Nc1c(C)nn(-c2ccccc2)c1N1CCC(C(=O)Nc2ccc(C)cc2Cl)CC1 3.29%, COc1cccc(-n2ccnc2SCC(=O)Nc2nc3ccc(C)cc3s2)c1 -2.27%, Cc1ccc(Cn2c(C(=O)O)c(CNCCc3cccs3)c3ccc(C)cc32)cc1 -7.81%, O=C(NC1CC(=O)N(c2ccc(F)cc2)C1)c1ccc(S(=O)(=O)N2CCCC2)cc1 (configuration not stated) 9.47%

outcome, inactive:
Cc1ccc(N(C(=O)c2cccc(C)c2)S(=O)(=O)c2ccc(Cl)cc2)cc1, Cc1nn2c(=O)cc(COC(=O)c3ccc(F)cc3)nc2s1, CCOc1ccc(NC(=O)c2sc3nc4n(c(=O)c3c2C)CCCC4)cc1, Cc1cccc(NC(=O)c2ccc(F)c(S(=O)(=O)NCc3ccc4c(c3)OCO4)c2)c1, CCOC(=O)C1CCN(C(=O)c2ccc3c(=O)n4nc(Nc5ccccc5)sc4nc3c2)CC1, O=C(Nc1ccccc1F)C(c1ccccc1)N1Cc2ccccc2C1=O (configuration not stated), CCSc1ncc(Cl)c(C(=O)Nc2ccc(S(=O)(=O)N3CCCCC3CC)cc2)n1 (configuration not stated), CCCCNC(=O)CSc1nc(-c2ccc(OC)cc2)cc(C(F)(F)F)n1, Cc1noc(-c2ccc(N(C)Cc3ccccc3)c([N+](=O)[O-])c2)n1, Cc1ccc(OCC(=O)Nc2nnc(SCc3cc(=O)n4cc(C)ccc4n3)s2)cc1, COC(=O)c1ccccc1NC(=O)CCn1c(=O)c2cccn2c2cccnc21, Cc1ccc(NC(=O)Nc2nc3c(s2)CCCCCC3)cc1C, O=C(COc1ccc(Cl)cc1)Nc1ccc(O)c(-c2nc3ccccc3s2)c1, CCN(C(=O)CSc1nc2ccccc2nc1Cc1cccc(OC)c1)c1cccc(C)c1, Cc1ccc2oc(-c3cc(NC(=O)Cc4ccccc4)ccc3Cl)nc2c1
